# Results reported in PubChem BioAssay AID1460 (National Center for Advancing Translational Sciences (NCATS), 2008).
# Out of some 270,000 compounds screened, about 5,800 (2.1%) were called active. The inconclusive results got no clear call from the source; some entries with a clear call stand among them for comparison. Calls follow the shape of the dose curve; as a rule, active = well fitted inhibition curve with a large enough effect; inconclusive = small, poorly fitted or top-dose-only effect; inactive = flat fitted curve, though single readings scatter. Where the call is inconclusive, the potency comes from a doubtful curve fit.
# Molecular target: Microtubule-associated protein tau (Homo sapiens) (UniProt P10636)
# Experiment: qHTS for Inhibitors of Tau Fibril Formation, Thioflavin T Binding; also: nearly all actives have a fitted effect of over 55% in size
# Conditions: recombinant tau K18 P301L (four-repeat tau fragment), heparin-induced fibrillization, ThT fluorescence; series mostly up to 57.4 µM
# How it was run: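 In this qHTS, human K18 P301L tau is incubated with compound and heparin for 6 hr at 37 C, and Thioflavin T fluorescence then reports fibril load.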
# % is scaled to controls: 0 for no effect and ±100 for the full control effect; potency is read from the fitted curve at half-maximal effect; tags tell the direction and shape of the fitted curve.
# UniProt P10636, sequence (P10636 whole entry, looked up): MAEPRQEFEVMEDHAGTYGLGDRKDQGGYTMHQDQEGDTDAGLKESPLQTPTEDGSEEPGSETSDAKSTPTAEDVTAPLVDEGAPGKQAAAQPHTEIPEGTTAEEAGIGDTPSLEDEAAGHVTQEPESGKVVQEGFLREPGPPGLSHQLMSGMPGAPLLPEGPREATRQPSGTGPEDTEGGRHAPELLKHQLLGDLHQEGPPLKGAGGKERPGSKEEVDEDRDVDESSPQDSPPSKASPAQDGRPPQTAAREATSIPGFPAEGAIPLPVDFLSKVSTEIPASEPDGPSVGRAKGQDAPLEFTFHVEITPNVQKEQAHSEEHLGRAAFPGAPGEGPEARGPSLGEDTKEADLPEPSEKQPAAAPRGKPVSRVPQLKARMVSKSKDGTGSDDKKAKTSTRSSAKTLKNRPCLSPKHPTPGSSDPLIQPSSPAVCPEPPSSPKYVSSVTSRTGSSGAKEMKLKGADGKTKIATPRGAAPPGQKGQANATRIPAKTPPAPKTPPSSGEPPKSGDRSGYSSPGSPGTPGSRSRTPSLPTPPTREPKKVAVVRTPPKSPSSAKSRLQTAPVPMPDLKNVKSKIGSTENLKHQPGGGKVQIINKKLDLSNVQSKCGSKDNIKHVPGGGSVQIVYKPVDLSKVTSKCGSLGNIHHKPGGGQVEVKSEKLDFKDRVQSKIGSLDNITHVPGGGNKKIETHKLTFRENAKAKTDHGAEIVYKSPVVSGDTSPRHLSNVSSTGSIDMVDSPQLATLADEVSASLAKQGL
SMILES,Potency,"activity, negative = inhibition"
O=C(COc1ccc2oc3c(c2c1)CCCC3)Nc1cccc(Br)c1,"inconclusive: 1 µM [inhibitor, full curve]",–
c1ccc(Oc2nc(-c3cccnc3)nc3ccccc23)cc1,"inconclusive: 14.1 µM [inhibitor, partial curve, poor fit]",–
C/C(=N\OCC(=O)Nc1cc(C)cc(C)c1)c1ccc2c(c1)OCCO2,"inconclusive: 12.6 µM [inhibitor, partial curve]",–
O=C(COc1ccc2oc3c(c2c1)CCCC3)Nc1ccccn1,"inconclusive: 3.55 µM [inhibitor, full curve]",–
CCOC(=O)CCN1C(=O)[C@H]2[C@H]3[C@H](O)[C@H](O)C/C(=N/OC[C@@H](O)COCc4ccco4)[C@H]3CC[C@@H]2C1=O,–,inactive: 1.7% [at 11.5 µM]
CCOC(=O)C1=C(C)N=C2SC(C(=O)OC)=CC(=O)N2C1c1ccc(F)cc1 (centres undefined),"inconclusive: 31.6 µM [inhibitor, partial curve]",–
CCOC(=O)Cc1csc(NC(=S)NC(=O)c2cc(OC)c(OC)c(OC)c2)n1,"inconclusive: 39.8 µM [inhibitor, single point]",–
CN(C)c1ccc(-c2cc(-n3ccnc3)ncn2)cc1,"inconclusive: 14.1 µM [inhibitor, partial curve]",–
Cc1nnc(NC(=O)C2CCN(c3nnnn3-c3ccccc3)CC2)s1,inactive,–
CCOc1cccc2c1OC1(CCCCC1)N1N=C(c3cccnc3)CC21 (centres undefined),"inconclusive: 35.5 µM [inhibitor, partial curve]",–
Oc1ccc2ccccc2c1/C=N/c1nccs1,"inconclusive: 31.6 µM [inhibitor, single point]",–
COc1ccc(C(=S)N2CCCC2)cc1OC,inactive,–
CN(C)c1ccc(/C=C/C(=O)c2ccc3c(c2)OCCO3)cc1[N+](=O)[O-],active: 3.55 µM,–
CCOC(=O)C1=C(C)N=C2SC(C(=O)OC)=CC(=O)N2C1c1cc(OC)c(OC)c(OC)c1 (centres undefined),"inconclusive: 28.2 µM [inhibitor, partial curve]",–
O=C(Nc1cccc([N+](=O)[O-])c1)Nc1cccc([N+](=O)[O-])c1,"inconclusive: 39.8 µM [inhibitor, single point]",–
Cc1oc2c(c1C(=O)Nc1ccc(OC(F)(F)F)cc1)C1=NCCN1C=N2,inactive,–
CNC1=C(Br)C(=O)c2ccncc2C1=O,"inconclusive: 22.4 µM [inhibitor, partial curve]",–
Cc1ccc2c(c1)c(N=O)c(O)n2Cc1ccc(Cl)cc1,inactive,–
C=CC(C)(C)c1[nH]c2ccccc2c1C1=C(O)C(=O)C(c2c[nH]c3c(CC=C(C)C)cccc23)=C(O)C1=O,active: 14.1 µM,–
COc1ccc(OC)c(-n2cc3c(=O)n(C)c(=O)n(C)c3c2)c1,"inconclusive: 28.2 µM [inhibitor, partial curve]",–
CCc1ccc(NC(=O)CCc2c(C)nn(-c3ccc(N4CCCC4)nn3)c2C)cc1,"inconclusive: 15.8 µM [inhibitor, partial curve, poor fit]",–
COc1cc(/C=N/N=C(N)N)ccc1OCc1ccc(Cl)cc1,inactive,–
Cc1cccc(OCC(=O)NCC(=O)N/N=C/c2ccc([N+](=O)[O-])cc2)c1,"inconclusive: 8.91 µM [inhibitor, full curve]",–

SMILES,Potency,"activity, negative = inhibition"
O=[N+]([O-])c1cc(Cl)cc(/C=N/n2cnnc2)c1O,"inconclusive: 7.08 µM [inhibitor, partial curve]",–
Cn1c(=O)c2cc(C(=O)NCCCN3CCN(c4ccc(F)cc4)CC3)sc2c2ccccc21,"inconclusive: 0.501 µM [inhibitor, full curve, poor fit]",–
COc1cc(OC)c(C(=O)Nc2ccc(N(C)C)cc2)cc1OC,"inconclusive: 14.1 µM [inhibitor, partial curve]",–
COc1ccc(NC(=O)CSc2nc3ccccc3nc2N2CCOCC2)c(OC)c1,"inconclusive: 10 µM [inhibitor, partial curve]",–
COc1cc(SC)ccc1C(=O)Nc1ccc2c(c1)CCN2S(C)(=O)=O,"inconclusive: 3.16 µM [inhibitor, full curve]",–
CCNC(=S)N=Nc1c(O)n(Cc2ccc(Cl)cc2)c2ccccc12,"inconclusive: 3.98 µM [inhibitor, full curve]",–
CCC/C=C(\CCC)C(NS(C)(=O)=O)c1ccccc1 (centres undefined),inactive,–
COc1ccc(C(=O)/C=C/c2cn(CC(O)CN3CCCCCC3)c3ccccc23)cc1OC (centres undefined),"inconclusive: 2 µM [inhibitor, full curve]",–
COc1ccccc1N1CCN(c2nc(N)c(C#N)c(CC#N)c2C#N)CC1,"inconclusive: 39.8 µM [inhibitor, single point]",–
O=C(Nc1ccc2c(c1)OCCO2)c1ccc(Cl)c([N+](=O)[O-])c1,"inconclusive: 12.6 µM [inhibitor, partial curve]",–
COCCCNC(=O)c1c(NC(=O)Cc2coc3cc(C)ccc23)sc2c1CCCC2,inactive,–
CCN(CC)c1ccc(/C=N/NC(=O)c2ccc3nc[nH]c3c2)cc1,active: 2.82 µM,–
CC1(C)Cc2c(cnn2-c2ccccc2)-c2c1c1ccccc1n2CC(O)CCl (centres undefined),"inconclusive: 11.2 µM [inhibitor, partial curve]",–
O=C(CSc1nnc(-c2ccccc2Cl)n1Cc1ccco1)Nc1ccc2c(c1)OCCO2,inactive,–
COc1cccc(N/N=C/c2cccc(Br)c2O)c1,active: 17.8 µM,–
CC1CCN(C(=O)Cn2cc(SCC(=O)NCc3ccc(F)cc3)c3ccccc32)CC1,inactive,–
Cc1cccc(C2=NN(c3ccc(Br)cc3)[C@@H](C(=O)N3CCOC3=O)[C@@H]2C)c1,"inconclusive: 12.6 µM [inhibitor, partial curve]",–
Cc1ccc(-n2cccc2/C=C2/C(=N)N3C(=NC2=O)SN=C3S(C)(=O)=O)cc1Cl,"inconclusive: 39.8 µM [inhibitor, single point]",–
COc1ccc(/C=N/N=C2/NC(=O)C(CC(=O)O)S2)cc1OCc1ccc(Cl)cc1Cl (centres undefined),"inconclusive: 15.8 µM [inhibitor, partial curve]",–
COc1cc(C(=O)NCCc2sc(-c3ccc(C)cc3)nc2C)cc(OC)c1OC,"inconclusive: 11.2 µM [inhibitor, partial curve]",–
CCN1/C(=C\c2ccc3ccccc3[n+]2CC)Sc2cc(C)ccc21,active: 15.8 µM,–
COC(=O)CC1(c2cccc3ccccc23)C(=O)c2ccccc2C1=O,active: 15.8 µM,–
NS(=O)(=O)c1ccc(N=Cc2c(O)n(-c3nccs3)c(=O)c3ccccc23)cc1,"inconclusive: 1.26 µM [inhibitor, full curve]",–

SMILES,Potency,"activity, negative = inhibition"
O=C(CNc1ccccc1)N/N=C/c1c[nH]c2ccccc12,inactive,–
CC(C)(C)NC(=O)c1cc(C(C)(C)C)c(O)c(C(C)(C)C)c1,inactive,–
O=C(O)c1ccc(N=Nc2c(O)[nH]c3cc(Cl)ccc23)cc1,active: 3.98 µM,–
c1ccc(C2c3[nH]c4ccccc4c3CCN2Cc2cccn2-c2cccnc2)nc1 (centres undefined),"inconclusive: 15.8 µM [inhibitor, partial curve]",–
CC1CCc2c(sc(NC(=O)COC(=O)c3ccc(O)cc3)c2C#N)C1 (centres undefined),"inconclusive: 20 µM [inhibitor, single point]",–
Cc1sc(C2C(C#N)=C(N)N(c3ccc(Cl)cc3)C3=C2C(=O)CCC3)cc1CN1CCOCC1 (centres undefined),inactive,–
CCC1=NN2C(=N)/C(=C\c3cccn3-c3cccc(Cl)c3)C(=O)N=C2S1,"inconclusive: 17.8 µM [inhibitor, partial curve, poor fit]",–
O=C(O)C1CC=CCC1C(=O)N1CCN(c2nc(-c3ccccc3)c3ccccc3n2)CC1 (centres undefined),"inconclusive: 35.5 µM [inhibitor, partial curve]",–
Cc1ccc(NC2(c3ccccc3)C(=O)c3ccccc3C2=O)cc1F,inactive,–
CCC(=O)N1CCN(c2ccc(OC)cc2[N+](=O)[O-])CC1,"inconclusive: 35.5 µM [inhibitor, partial curve]",–
Cc1ccc2scc(N3CCCCC3C)c(=O)c2c1 (centres undefined),"inconclusive: 14.1 µM [inhibitor, partial curve]",–
Cc1cc(C(=O)OCC(N)=O)c(C)n1-c1ccccc1,inactive,–
Cc1ccccc1CNC(=O)CN1C(=O)CCCc2ccccc21,inactive,–
Cc1nn(C(C)C(=O)NCCc2ccccc2)c(=O)c2c1sc1ccccc12 (centres undefined),"inconclusive: 3.98 µM [activator, full curve]",–
COc1ccc([C@@H]2[C@@H](O)[C@H](O)[C@@H](C)N2C)cc1OC,inactive,–
COC(=O)C1=C(C)N(CCc2ccc(OC)c(OC)c2)C(=O)/C1=C\c1ccc(O)cc1,"inconclusive: 11.2 µM [inhibitor, partial curve]",–
O=C(O)Cc1sc(Nc2ccc(Cl)cc2)nc1-c1cccs1,"inconclusive: 15.8 µM [inhibitor, partial curve]",–
CCN(Cc1ccccc1)c1nc2c(S(=O)(=O)c3ccccc3)nnn2c2ccc(Cl)cc12,inactive,–
COc1ccc(CSc2cccc3cccnc23)cc1[N+](=O)[O-],"inconclusive: 14.1 µM [inhibitor, partial curve]",–
COc1ccc(Nc2nc3ccccc3nc2NS(=O)(=O)c2ccc(NC(C)=O)cc2)cc1,"inconclusive: 15.8 µM [inhibitor, partial curve]",–
CCOc1ccc(C(=O)COC(C)=O)cc1,inactive,–
CCc1ccc(Nc2c([N+](=O)[O-])c(=O)oc3ccccc23)cc1,"inconclusive: 15.8 µM [inhibitor, partial curve]",–
Cc1ccccc1C(=O)Nc1cccc(NC(=O)c2ccc(C(C)(C)C)cc2)c1,inactive,–
